From article PMC4921775, “Transient Fcho1/2⋅Eps15/R⋅AP-2 Nanoclusters Prime the AP-2 Clathrin Adaptor for Cargo Binding” (Developmental Cell, 2016) come the findings set out here.

Results are given in words; binding and its absence hold for the method and conditions named. In cells and extracts the contact can be indirect. Some results given as binding are weak or reduced against the parent protein; the word gives no strength. For some assays here: Tags and fused reporters may be left off the sequences shown.

Assay [1] addresses T1, GST-FCHO1 μHD (human) (UniProt O14526).
T1 sequence: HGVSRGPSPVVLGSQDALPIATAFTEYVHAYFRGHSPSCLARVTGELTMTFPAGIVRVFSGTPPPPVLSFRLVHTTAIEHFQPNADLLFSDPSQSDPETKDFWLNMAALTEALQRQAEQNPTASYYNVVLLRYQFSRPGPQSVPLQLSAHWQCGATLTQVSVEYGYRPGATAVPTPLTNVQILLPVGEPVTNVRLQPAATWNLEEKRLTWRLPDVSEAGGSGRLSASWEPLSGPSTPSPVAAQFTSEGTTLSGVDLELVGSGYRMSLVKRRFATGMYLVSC
In words: pull-down; HeLa cell lysate with 250 μg (Figure 3F: the indicated amount) of GST or GST-μHD fusion proteins immobilised on glutathione-Sepharose; supernatant and pellet stained or immunoblotted; Figures 1G, 3E, 3F; only the target purified.

The target of assay [2] is T2, GST-FCHO1 μHD N735A + R740A (human) (UniProt O14526).
T2 sequence: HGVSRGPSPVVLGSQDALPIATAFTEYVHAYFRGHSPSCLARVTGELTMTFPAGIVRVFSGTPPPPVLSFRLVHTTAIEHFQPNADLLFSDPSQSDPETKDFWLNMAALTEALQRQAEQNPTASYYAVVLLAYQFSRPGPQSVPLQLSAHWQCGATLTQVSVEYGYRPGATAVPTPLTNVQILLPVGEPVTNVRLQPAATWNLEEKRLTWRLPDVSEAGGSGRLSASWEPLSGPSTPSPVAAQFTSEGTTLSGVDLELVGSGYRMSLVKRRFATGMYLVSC
The description is as above.

In assay [3] the target is T3, GST-FCHO1 μHD K877E + R879A (human, UniProt O14526 609-889, K877E | R879A).
T3 construct: also called K877E + R879A mutant; source: GST-fusion protein immobilised on glutathione-Sepharose; not shown: GST, N-terminal, kept
T3 sequence (looked up): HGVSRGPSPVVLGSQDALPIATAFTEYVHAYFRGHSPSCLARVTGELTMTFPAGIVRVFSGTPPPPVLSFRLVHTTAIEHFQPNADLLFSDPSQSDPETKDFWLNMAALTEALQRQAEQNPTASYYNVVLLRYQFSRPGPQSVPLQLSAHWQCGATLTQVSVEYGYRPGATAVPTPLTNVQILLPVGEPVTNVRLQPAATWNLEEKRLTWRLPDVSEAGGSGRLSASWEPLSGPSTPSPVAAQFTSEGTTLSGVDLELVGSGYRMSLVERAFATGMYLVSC
The assay is described as above.

The target of assay [4] is T4, GST-FCHO1 μHD T633Y (human) (UniProt O14526).
T4 sequence: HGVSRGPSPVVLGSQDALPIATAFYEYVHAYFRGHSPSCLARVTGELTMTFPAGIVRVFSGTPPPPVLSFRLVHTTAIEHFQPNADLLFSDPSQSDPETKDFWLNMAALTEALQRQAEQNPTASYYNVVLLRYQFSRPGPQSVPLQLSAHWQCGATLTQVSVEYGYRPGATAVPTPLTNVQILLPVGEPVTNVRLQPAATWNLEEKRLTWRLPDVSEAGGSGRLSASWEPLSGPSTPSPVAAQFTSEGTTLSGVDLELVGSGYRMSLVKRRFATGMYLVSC
In words: pull-down; GST-μHD fusion proteins on glutathione-Sepharose, cytosolic partner proteins detected by blot; Figures S1E, S3A, S3B, S3E (legends not shown, source of the extract not told); only the target purified.

For assay [5], the target named is T1, GST-FCHO1 μHD (human). The assay is described as above.
Assay [6] has as its target T5, GST-FCHO1 μHD Y635S (human) (UniProt O14526).
T5 sequence: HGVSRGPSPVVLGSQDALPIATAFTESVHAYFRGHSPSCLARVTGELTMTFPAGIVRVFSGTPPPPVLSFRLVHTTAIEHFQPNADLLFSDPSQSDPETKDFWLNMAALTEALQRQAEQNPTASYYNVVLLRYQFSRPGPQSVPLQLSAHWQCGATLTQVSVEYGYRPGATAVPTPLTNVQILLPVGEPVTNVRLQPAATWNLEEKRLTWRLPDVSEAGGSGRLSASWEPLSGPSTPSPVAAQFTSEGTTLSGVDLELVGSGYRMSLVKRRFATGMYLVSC
Described as above.

Assay [7] has as its target T6, EPS15 (595–896) (human) (UniProt P42566).
T6 sequence: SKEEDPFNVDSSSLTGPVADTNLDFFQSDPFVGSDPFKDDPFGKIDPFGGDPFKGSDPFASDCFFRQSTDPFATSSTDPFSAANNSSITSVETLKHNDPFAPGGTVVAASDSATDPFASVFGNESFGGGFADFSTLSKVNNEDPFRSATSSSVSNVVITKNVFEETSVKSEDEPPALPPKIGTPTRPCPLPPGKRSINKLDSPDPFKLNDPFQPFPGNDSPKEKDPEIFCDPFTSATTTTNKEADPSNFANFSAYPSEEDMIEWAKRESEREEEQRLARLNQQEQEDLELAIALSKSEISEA
In words: pull-down; EPS15 (595–896) immobilised on excess GST-AP-2 α appendage, FCHO1 μHD added; Figures S1G, S1H (legends not shown).

Assay [8] has as its target T7, GST-EPS15 (615–636) (human).
T7 sequence: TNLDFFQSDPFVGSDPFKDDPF
The assay can be described thus: pull-down; rat brain cytosol with 250 μg of GST and either 50 or 250 μg of GST-EPS15 fusion proteins; immunoblot with antibodies against Fcho2; Figures 1A, 1B; only the target purified.

B1: HRB (protein, UniProt P52594 1-562)
chain: MAASAKRKQEEKHLKMLRDMTGLPHNRKCFDCDQRGPTYVNMTVGSFVCTSCSGSLRGLNPPHRVKSISMTTFTQQEIEFLQKHGNEVCKQIWLGLFDDRSSAIPDFRDPQKVKEFLQEKYEKKRWYVPPEQAKVVASVHASISGSSASSTSSTPEVKPLKSLLGDSAPTLHLNKGTPSQSPVVGRSQGQQQEKKQFDLLSDLGSDIFAAPAPQSTATANFANFAHFNSHAAQNSANADFANFDAFGQSSGSSNFGGFPTASHSPFQPQTTGGSAASVNANFAHFDNFPKSSSADFGTFNTSQSHQTASAVSKVSTNKAGLQTADKYAALANLDNIFSAGQGGDQGSGFGTTGKAPVGSVVSVPSQSSASSDKYAALAELDSVFSSAATSSNAYTSTSNASSNVFGTVPVVASAQTQPASSSVPAPFGATPSTNPFVAAAGPSVASSTNPFQTNARGATAATFGTASMSMPTGFGTPAPYSLPTSFSGSFQQPAFPAQAAFPQQTAFSQQPNGAGFAAFGQTKPVVTPFGQVAAAGVSSNPFMTGAPTGQFPTGSSSTNPFL
B1: the binding result was “binds weakly” in assay [1]; “no binding” in assay [2]; “no binding” in assay [3]; “binds” in assay [4]; “binds” in assay [5]; “binds” in assay [6].

B2: CALM (protein, UniProt Q13492 1-652)
chain: MSGQSLTDRITAAQHSVTGSAVSKTVCKATTHEIMGPKKKHLDYLIQCTNEMNVNIPQLADSLFERTTNSSWVVVFKSLITTHHLMVYGNERFIQYLASRNTLFNLSNFLDKSGLQGYDMSTFIRRYSRYLNEKAVSYRQVAFDFTKVKRGADGVMRTMNTEKLLKTVPIIQNQMDALLDFNVNSNELTNGVINAAFMLLFKDAIRLFAAYNEGIINLLEKYFDMKKNQCKEGLDIYKKFLTRMTRISEFLKVAEQVGIDRGDIPDLSQAPSSLLDALEQHLASLEGKKIKDSTAASRATTLSNAVSSLASTGLSLTKVDEREKQAALEEEQARLKALKEQRLKELAKKPHTSLTTAASPVSTSAGGIMTAPAIDIFSTPSSSNSTSKLPNDLLDLQQPTFHPSVHPMSTASQVASTWGDPFSATVDAVDDAIPSLNPFLTKSSGDVHLSISSDVSTFTTRTPTHEMFVGFTPSPVAQPHPSAGLNVDFESVFGNKSTNVIVDSGGFDELGGLLKPTVASQNQNLPVAKLPPSKLVSDDLDSSLANLVGNLGIGNGTTKNDVNWSQPGEKKLTGGSNWQPKVAPTTAWNAATMAPPVMAYPATTPTGMIGYGIPPQMGSVPVMTQPTLIYSQPVMRPPNPFGPVSGAQIQFM
With B2, the binding result in assay [1] is “binds weakly”; in assay [2], “no binding”; in assay [3] it was “no binding”; in assay [4], “binds”; in assay [5] it was “binds”; in assay [6] it was “binds”.

B3: FCHO1 μHD (purified, not on beads) (domain or fragment, UniProt O14526 609-889)
chain: HGVSRGPSPVVLGSQDALPIATAFTEYVHAYFRGHSPSCLARVTGELTMTFPAGIVRVFSGTPPPPVLSFRLVHTTAIEHFQPNADLLFSDPSQSDPETKDFWLNMAALTEALQRQAEQNPTASYYNVVLLRYQFSRPGPQSVPLQLSAHWQCGATLTQVSVEYGYRPGATAVPTPLTNVQILLPVGEPVTNVRLQPAATWNLEEKRLTWRLPDVSEAGGSGRLSASWEPLSGPSTPSPVAAQFTSEGTTLSGVDLELVGSGYRMSLVKRRFATGMYLVSC
Turning to B3, the binding entry in assay [7] is “binds”.

B4: DAB2 (protein, UniProt P98082 1-770)
chain: MSNEVETSATNGQPDQQAAPKAPSKKEKKKGPEKTDEYLLARFKGDGVKYKAKLIGIDDVPDARGDKMSQDSMMKLKGMAAAGRSQGQHKQRIWVNISLSGIKIIDEKTGVIEHEHPVNKISFIARDVTDNRAFGYVCGGEGQHQFFAIKTGQQAEPLVVDLKDLFQVIYNVKKKEEEKKKIEEASKAVENGSEALMILDDQTNKLKSGVDQMDLFGDMSTPPDLNSPTESKDILLVDLNSEIDTNQNSLRENPFLTNGITSCSLPRPTPQASFLPENAFSANLNFFPTPNPDPFRDDPFTQPDQSTPSSFDSLKSPDQKKENSSSSSTPLSNGPLNGDVDYFGQQFDQISNRTGKQEAQAGPWPFSSSQTQPAVRTQNGVSEREQNGFSVKSSPNPFVGSPPKGLSIQNGVKQDLESSVQSSPHDSIAIIPPPQSTKPGRGRRTAKSSANDLLASDIFAPPVSEPSGQASPTGQPTALQPNPLDLFKTSAPAPVGPLVGLGGVTVTLPQAGPWNTASLVFNQSPSMAPGAMMGGQPSGFSQPVIFGTSPAVSGWNQPSPFAASTPPPVPVVWGPSASVAPNAWSTTSPLGNPFQSNIFPAPAVSTQPPSMHSSLLVTPPQPPPRAGPPKDISSDAFTALDPLGDKEIKDVKEMFKDFQLRQPPAVPARKGEQTSSGTLSAFASYFNSKVGIPQENADHDDFDANQLLNKINEPPKPAPRQVSLPVTKSTDNAFENPFFKDSFGSSQASVASSQPVSSEMYRDPFGNPFA
For B4, the results for the binding entry in assay [1], in assay [3] and in assay [5] were “binds weakly”, “no binding” and “binds”, respectively.

B5: Fcho2 (rat brain cytosol) (protein, UniProt D3ZYR1 1-809)
chain: MVMAHFVENFWGEKNNGFDVLYHNMKHGQISTKELADFVRERATIEEAYSRSMTKLAKSASNYSQLGTFAPVWDVFKTSTEKLANCHLDLVRKLQELIKEVQKYGEEQVKSHKKTKEEVAGTLEAVQAIQNITQALQKSKENYNAKCVEQERLKKEGATPREIEKAAVKSKKATDTYKLYVEKYALTKADFEQKMTETAQKFQDIEETHLIHIKEIIGSLSNAIKEIHLQIGQVHEEFINNMANTTIESLIQKFAESKGTGKERPGLIEFEECDPASAVEGIKPRKRKTFALPGIIKKEKDAESVECPDADSLNIPDVDEEGFSIKPEANQNDTKENHFYSSSDSDSEDEEPKRYRIEIKPVHPNNVHHTMASLDELKVSIGNITLSPAVSRHSPVQMNRNSSNEELTKSKPSSLPTEKGTNDLLAWDPLFGSSLESSSAPLTSSSSARPTTPLSLGTIVPPPRPASRPKLTSGKLSGINEIPRPFSPPITSNTSPPPTAPLARAESSSSISSSASLSAANTPTVGVSRGPSPVSLGNQDTLPVAIALTESVNAYFKGADPTKCIVKITGDVTISFPSGIIKVFTSNPSPAVLCFRVKNISRLEQILPNSQLVFSDPSQCDSNTKDFWMNMQAVTVYLKKLSEQNPAASYYNVDVLKYQVSSNGIQSTPLNLATYWKCSASTTDLRVDYKYNPEAMVAPSVLSNIQVVVPVDGGVTNMQSLPPAIWNAEQMKAFWKLSGISEKSDSGGSGSLRAKFDLSEGPSKPATLAVQFLSEGNTLSGVDIELVGTGYRLSLVKKRFATGRYLADC
Consider B5, for which the binding result in assay [8] is on record as “binds”.
